Experimental data from patent US7619094B2, “Ketoamides with cyclic P4's as inhibitors of NS3 serine protease of hepatitis C virus” (Schering Corporation, priority 2004, dated 2009).

Each compound was assayed against Recombinant heterodimeric HCV NS3/NS4A protease (strain 1a) (Hepatitis C virus genotype 1a, UniProt P27958) (assay: HCV continuous assay (spectrophotometric HCV NS3/NS4A serine protease inhibition assay)). Details: Table 1; ranges of Ki* values in HCV continuous assay.
Type: biochemical, HCV (strain 1a)

Row | Compound | Ki [nM]
1 | CCCC(NC(=O)[C@@H]1[C@@H]2[C@H](CN1C(=O)[C@@H](NC(=O)N[C@H](CN1CCCN(C)S1(=O)=O)C(C)(C)C)C(C)(C)C)C2(C)C)C(=O)C(N)=O (stereo partly shown) [Compound 5137] | ≤ 50
2 | C=CCNC(=O)C(=O)C(CC1CC1)NC(=O)[C@@H]1[C@@H]2[C@H](CN1C(=O)[C@@H](NC(=O)N[C@H](CN1CCN(C(C)C)S1(=O)=O)C(C)(C)C)C(C)(C)C)C2(C)C (stereo partly shown) [Compound 5237] | ≤ 50
3 | CCCCC(NC(=O)[C@@H]1[C@@H]2[C@H](CN1C(=O)[C@@H](NC(=O)N[C@H](CN1Cc3sccc3S1(=O)=O)C(C)(C)C)C(C)(C)C)C2(C)C)C(=O)C(N)=O (stereo partly shown) [Compound 5161] | ≤ 50
4 | C#CCCC(NC(=O)[C@@H]1[C@@H]2[C@H](CN1C(=O)[C@@H](NC(=O)N[C@H](CN1CCCN(C)S1(=O)=O)C(C)(C)C)C1CCCCC1)C2(C)C)C(=O)C(=O)NCC=C (stereo partly shown) [Compound 5242] | ≤ 50
5 | CC(C)(C)[C@H](NC(=O)N[C@H](CN1CCCNS1(=O)=O)C(C)(C)C)C(=O)N1C[C@H]2[C@@H]([C@H]1C(=O)NC(CC1CC1)C(=O)C(N)=O)C2(C)C (stereo partly shown) [Compound 5215] | ≤ 50
6 | CCCC(NC(=O)[C@@H]1[C@@H]2[C@H](CN1C(=O)[C@@H](NC(=O)N[C@H](CN1CCCS1(=O)=O)C(C)(C)C)C(C)(C)C)C2(C)C)C(=O)C(=O)NC (stereo partly shown) [Compound 5122] | ≤ 50
7 | CCCCC(NC(=O)[C@@H]1[C@@H]2[C@H](CN1C(=O)[C@@H](NC(=O)N[C@H](CN1Cc3sccc3S1(=O)=O)C(C)(C)C)C(C)(C)C)C2(C)C)C(=O)C(=O)NCC (stereo partly shown) [Compound 5259] | ≤ 50
8 | C=CCNC(=O)C(=O)C(CC1CC1)NC(=O)[C@@H]1[C@@H]2[C@H](CN1C(=O)[C@@H](NC(=O)N[C@H](CN1CCCN(C)S1(=O)=O)C(C)(C)C)C1CCCCC1)C2(C)C (stereo partly shown) [Compound 5238] | ≤ 50
9 | C=CCNC(=O)C(=O)C(CCC)NC(=O)[C@@H]1[C@@H]2[C@H](CN1C(=O)[C@@H](NC(=O)N[C@H](CN1CCN(C(C)C)S1(=O)=O)C(C)(C)C)C1CCCCC1)C2(C)C (stereo partly shown) [Compound 5204] | ≤ 50
10 | CN1CCCN(C[C@@H](NC(=O)N[C@H](C(=O)N2C[C@H]3[C@@H]([C@H]2C(=O)NC(CC2CC2)C(=O)C(N)=O)C3(C)C)C(C)(C)C)C(C)(C)C)S1(=O)=O (stereo partly shown) [Compound 5130] | ≤ 50
11 | CC(C)[C@@H](CN1CCCS1(=O)=O)NC(=O)N[C@H](C(=O)N1C[C@H]2[C@@H]([C@H]1C(=O)NC(CC1CCC1)C(=O)C(N)=O)C2(C)C)C(C)(C)C (stereo partly shown) [Compound 5106] | ≤ 50

Same assay, conditions: Table 2; ranges of Ki* values in HCV continuous assay

Row | Compound | Ki [nM]
12 | CC(C)(C)[C@H](NC(=O)N[C@H](Cn1ccccc1=O)C(C)(C)C)C(=O)N1C[C@H]2[C@@H]([C@H]1C(=O)NC(CC1CCC1)C(=O)C(N)=O)C2(C)C (mixture of isomers) [Compound 5648] | ≤ 50
13 | C=CCNC(=O)C(=O)C(CCC)NC(=O)[C@@H]1[C@@H]2[C@H](CN1C(=O)[C@@H](NC(=O)N[C@H](CN1CCCOC1=O)C(C)(C)C)C(C)(C)C)C2(C)C (stereo partly shown) [Compound 5695] | ≤ 50
14 | C#CCCC(NC(=O)[C@@H]1[C@@H]2[C@H](CN1C(=O)[C@@H](NC(=O)N[C@H](CN1Cc3ccccc3C1=O)C(C)(C)C)C(C)(C)C)C2(C)C)C(=O)C(=O)NCC (stereo partly shown) [Compound 5750] | ≤ 50
15 | CC(C)(C)[C@H](NC(=O)N[C@H](CN1C(=O)c2ccccc2C1=O)C(C)(C)C)C(=O)N1C[C@H]2[C@@H]([C@H]1C(=O)NC(CC1CC1)C(=O)C(N)=O)C2(C)C (stereo partly shown) [Compound 5618] | ≤ 50
16 | C=CCNC(=O)C(=O)C(CCCC)NC(=O)[C@@H]1[C@@H]2[C@H](CN1C(=O)[C@@H](NC(=O)N[C@H](CN1Cc3ccccc3CC1=O)C(C)(C)C)C(C)(C)C)C2(C)C (stereo partly shown) [Compound 5729] | ≤ 50
17 | C#CCCC(NC(=O)[C@@H]1[C@@H]2[C@H](CN1C(=O)[C@@H](NC(=O)N[C@H](CN1CCCCC1=O)C(C)(C)C)C1(C)CCCCC1)C2(C)C)C(=O)C(=O)NCC=C (stereo partly shown) [Compound 5780] | ≤ 50
18 | C=CCNC(=O)C(=O)C(CCCC)NC(=O)[C@@H]1[C@@H]2[C@H](CN1C(=O)[C@@H](NC(=O)N[C@H](CN1C(=O)CCC(C)(C)C1=O)C(C)(C)C)C1CCCCC1)C2(C)C (stereo partly shown) [Compound 5817] | ≤ 50
19 | C=CCNC(=O)C(=O)C(CC1CC1)NC(=O)[C@@H]1[C@@H]2[C@H](CN1C(=O)[C@@H](NC(=O)N[C@H](CN1C(=O)CNC1=O)C(C)(C)C)C(C)(C)C)C2(C)C (stereo partly shown) [Compound 5814] | ≤ 50
20 | C#CCCC(NC(=O)[C@@H]1[C@@H]2[C@H](CN1C(=O)[C@@H](NC(=O)N[C@H](CN1CCCN(C)C1=O)C(C)(C)C)C(C)(C)C)C2(C)C)C(=O)C(=O)NCC=C (stereo partly shown) [Compound 5706] | > 50
21 | CCCCC(NC(=O)[C@@H]1[C@@H]2[C@H](CN1C(=O)[C@@H](NC(=O)N[C@H](CN1C(=O)CCCC1=O)C(C)(C)C)C(C)(C)C)C2(C)C)C(=O)C(N)=O (stereo partly shown) [Compound 5676] | ≤ 50
22 | C#CCCC(NC(=O)[C@@H]1[C@@H]2[C@H](CN1C(=O)[C@@H](NC(=O)N[C@H](CN1Cc3ccccc3C1=O)C(C)(C)C)C1CCCCC1)C2(C)C)C(=O)C(=O)NCC=C (stereo partly shown) [Compound 5764] | ≤ 50
